Consider 44 compounds from article PMC4336329 (PLoS ONE, 2015).

Structures are written as SMILES. About 2,200 (0.71%) of roughly 310,000 compounds showed an effect of 50% or more. The effect is printed as a negative number. The list shows a part of the results.

The target of the assay is human ether-à-go-go-related gene (hERG) potassium channel (human, UniProt Q12809). Kind of assay: primary screen, population patch clamp on CHO cells stably expressing hERG.
human ether-à-go-go-related gene (hERG) potassium channel, sequence (Q12809 whole entry, looked up): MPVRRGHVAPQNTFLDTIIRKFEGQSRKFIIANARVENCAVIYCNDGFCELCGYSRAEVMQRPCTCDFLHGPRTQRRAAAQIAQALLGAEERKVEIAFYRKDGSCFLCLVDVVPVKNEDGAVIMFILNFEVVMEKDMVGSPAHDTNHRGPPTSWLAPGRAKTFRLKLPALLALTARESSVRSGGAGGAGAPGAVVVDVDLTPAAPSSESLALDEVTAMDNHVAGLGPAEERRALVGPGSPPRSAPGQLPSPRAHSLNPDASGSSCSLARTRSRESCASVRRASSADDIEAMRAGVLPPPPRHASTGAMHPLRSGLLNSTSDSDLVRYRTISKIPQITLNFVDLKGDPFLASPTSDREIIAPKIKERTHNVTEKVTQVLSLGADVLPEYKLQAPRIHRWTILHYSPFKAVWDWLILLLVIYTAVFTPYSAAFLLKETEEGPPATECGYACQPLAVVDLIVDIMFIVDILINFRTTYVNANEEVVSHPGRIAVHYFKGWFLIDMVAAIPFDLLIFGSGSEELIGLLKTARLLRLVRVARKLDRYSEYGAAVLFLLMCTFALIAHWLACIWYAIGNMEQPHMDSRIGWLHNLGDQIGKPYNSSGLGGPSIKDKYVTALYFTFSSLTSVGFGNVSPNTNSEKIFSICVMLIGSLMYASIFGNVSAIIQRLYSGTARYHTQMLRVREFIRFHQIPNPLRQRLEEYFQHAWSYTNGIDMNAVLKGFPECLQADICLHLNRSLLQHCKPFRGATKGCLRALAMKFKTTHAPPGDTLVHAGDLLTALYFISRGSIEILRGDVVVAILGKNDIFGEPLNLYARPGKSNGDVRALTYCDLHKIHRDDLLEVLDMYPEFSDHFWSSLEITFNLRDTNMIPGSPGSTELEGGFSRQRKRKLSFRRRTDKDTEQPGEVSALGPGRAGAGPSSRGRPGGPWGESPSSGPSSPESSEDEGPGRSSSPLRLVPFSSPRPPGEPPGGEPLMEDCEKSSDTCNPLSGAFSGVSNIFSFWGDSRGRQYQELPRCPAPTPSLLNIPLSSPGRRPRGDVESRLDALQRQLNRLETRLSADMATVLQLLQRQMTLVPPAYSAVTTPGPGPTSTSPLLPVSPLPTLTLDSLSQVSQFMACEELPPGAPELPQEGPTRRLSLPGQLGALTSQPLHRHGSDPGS
In the case of `CCOC(=O)N1CCN(C(=O)c2ccc3oc(CCCc4ccccc4)nc3c2)CC1`, the “hERG current change (%, negative = inhibition) at 1uM” value is -5.3%.
For `O=C(/C=C/c1ccc2c(c1)OCO2)NCCSCc1cccc(Cl)c1` the value was -1.68%; for `Cc1c(CCOC(=O)C23CC4CC(CC(C4)C2)C3)sc[n+]1CC#N.[Cl-]`, 12.6%.
For the compound `Cc1nc2ccccc2c2c1C(=O)N(C)C2=O`, the “hERG current change (%, negative = inhibition) at 1uM” value is recorded as -11.5%.
For `Cc1ccc(NC(=S)NNC(=S)Nc2ccc(C)cc2C)cc1` the value was 15.7%; for `O=C1c2ccccc2S(=O)(=O)N1CCOc1ccc(F)cc1`, 6.67%; for `Cc1cc(N2C(=O)C(O)=C(C(=O)c3ccc(C)o3)C2c2cccs2)no1` (centres unmarked), 11.8%.
For `COC(=O)c1sc2cc([N+](=O)[O-])cc(SCC(C)C)c2c1N` the value was 13%; for `CCOc1ccc2nc(NS(C)(=O)=O)sc2c1`, 16.9%; for `Cc1cccc(NC(=O)CN2CCC(C(=O)c3ccc4c(c3)OCCO4)CC2)c1`, -1.67%.
The same measure for `COc1ccccc1C1=NCc2nnc(CSC)n2-c2ccc(Cl)cc21`: 0.0726%.
As to `CCOc1ccc(N2C(=O)CC(N(Cc3ccco3)C(C)=O)C2=O)cc1` (centres unmarked), the “hERG current change (%, negative = inhibition) at 1uM” value is on record as 6.71%.
As to `CCCCCCCCCC(=O)N1CCN(c2cc3c(cc2F)c(=O)c(C(=O)O)cn3CC)CC1`, the “hERG current change (%, negative = inhibition) at 1uM” value is recorded as 11.7%.
For `O=C(c1ccc(Cl)cc1)c1cnc(-c2ccc(Cl)cc2)s1` the value was 7.36%; for `Cc1ccc(NC(=O)COC(=O)C2CC(=O)N(Cc3ccccc3)C2)cc1F` (centres unmarked), 5.54%; for `O=C(OCC(=O)N1CCN(C(=O)c2ccco2)CC1)c1ccccc1`, 15%.
The same measure for `CC1(C)C(=O)Nc2ccccc2N1C(=O)COC(=O)/C=C/c1ccc(OC(F)F)cc1`: 19.7%; for `O=C(CCOc1ccccc1)NCc1ccccc1`: 13%.
In the case of `N#C/C(=N\Nc1ccc(Cl)cc1)C(N)=S`, the “hERG current change (%, negative = inhibition) at 1uM” value is given as 12.8%.
In the case of `Cc1cccc2cc(CN(Cc3cccnc3)C(=O)c3ccncc3)c(=O)[nH]c12`, the “hERG current change (%, negative = inhibition) at 1uM” value is given as -4.45%.
Regarding `CCN(CC)C(=O)COc1cc(C)c(Cl)c(C)c1`, the “hERG current change (%, negative = inhibition) at 1uM” value is given as 6.26%.
The same measure for `CCC(NC(=O)c1ccccc1O)c1ccccc1` (centres unmarked): -2.27%.
For `CCCCCCc1nc2c(=O)[nH]c3ccccc3c2o1` the value was 15.2%.
The same measure for `OCC1(CCOc2ccccc2)CCN(Cc2ccc3c(c2)OCCO3)CC1`: -31.2%.
On to `O=C(Nc1cccc2ncccc12)c1ccccc1F`, for which the “hERG current change (%, negative = inhibition) at 1uM” value came out at 13.6%.
The same measure for `C[C@@H]1[C@H](O)C[C@@]23COC(=O)C2=CCCC3[C@@]1(C)CCC1COC(=O)C1` (some centres unmarked): 4.32%; for `Cc1cc2nc(SCCN3CCOCC3)[nH]c2cc1C`: 15.8%.
For `COC(=O)c1ccc(-c2cc(CC3(C(=O)OC)CCN(C(=O)OC(C)(C)C)CC3)on2)cc1` the value was 4.51%; for `O=C(O)[C@H]1CCCC[C@H]1C(=O)Nc1ccc(S(=O)(=O)N2CCOCC2)cc1`, 5.33%.
As for `N#CC1(NC(=O)COC(=O)CSc2ccc(F)cc2)CCCCC1`, the “hERG current change (%, negative = inhibition) at 1uM” value stood at 13%.
As to `O=C(CC1SC(=O)NC1=O)Nc1ccc(Cl)cc1` (centres unmarked), the “hERG current change (%, negative = inhibition) at 1uM” value amounted to 16.1%.
For `O=C(CSc1nnc(C2CCCCC2)o1)Nc1ccccc1Cl` the value was 9.55%; for `COC(=O)Cc1cc(C)cc2c(=O)cc(-c3ccoc3)oc12`, 8.1%; for `COc1ccc(C2=NOC(Cn3nc(C(=O)NCc4cccs4)cc3-c3ccccc3)C2)cc1` (centres unmarked), 2.66%.
For `Nc1nc(Nc2ccccc2)nc2c1ncn2[C@@H]1O[C@H](CO)[C@@H](O)[C@H]1O` the value was 5.18%; for `COc1ccccc1NC(=O)Nc1nc(CC(=O)Nc2ccc(F)c(F)c2)cs1`, 1.71%.
For the compound `CN(C(=O)COc1cc(C(F)(F)F)nn1C)c1ccccc1`, the “hERG current change (%, negative = inhibition) at 1uM” value was 23.3%.
The same measure for `O=C(Cc1ccc(S(=O)(=O)N2CCCC2)s1)N1CCOCC1`: 10.7%; for `COc1c(CC=C(C)C)cc(C2CC(=O)c3c(O)cc(O)cc3O2)c(CC=C(C)C)c1O` (centres unmarked): 8.07%.
The same measure for `CCOC(=O)N1CCN(C(=O)COc2ccccc2[N+](=O)[O-])CC1`: 13.4%; for `Cc1ccc(N2C(=O)CC(N(CCc3ccccc3)C(=S)Nc3ccc(N(C)C)cc3)C2=O)cc1` (centres unmarked): 10.3%.
For `O=C(Nc1ccncc1)c1cccc2ccccc12` the value was 15%; for `CCOC(=O)c1c(NC(=O)C(=O)N/N=C/c2ccccc2O)sc2c1CCCCC2`, 12.2%; for `O=C(Nc1ccc2c(c1)OCCO2)c1cccc(Cl)c1`, 20%.
